ChEMBL document CHEMBL4888484, “Replenishing the malaria drug discovery pipeline: Screening and hit evaluation of the MMV Hit Generation Library 1 (HGL1) against asexual blood stage Plasmodium falciparum ,using a nano luciferase reporter read-out” (2022)
About 540 (0.36%) of roughly 150,000 compounds showed an effect of 50% or more. This is one part of the list.

What follows are compounds tested on Plasmodium falciparum (assay: Primary screen in NF54 nanoGlo assay, in single point, at 2uM, 72h; a lower Z score goes with more inhibition). Conditions: timepoint 72 hour.
Format: functional, Erythrocyte

SMILES | % Inhibition [%] | Z score
Cc1c(NC(=O)c2nc(C)n(-c3ccccc3Cl)n2)cccc1C(=O)N1CCCC1 | -11 | 1.5
Cc1cnc([C@@H](NCc2ccc(-c3ccc(F)cc3C)o2)C2CC2)s1 | -5 | 0.71
CCOCCN(C)[C@@H](C)c1nccc(N)n1 | 12 | -1.67
COCCOCC(=O)N1CC2(C)CN(Cc3ccccc3)CC2(C)C1 (stereo not drawn) | 0 | -0.06
CCCc1cnc(C)nc1N1Cc2cnn(CCO)c2C1 | -11 | 2.17
CC(C)NC(=O)c1ccnc(N2CC(c3cccnc3)C2)c1 | 1 | -0.25
COC(C)(C)c1nc(C)c(C(=O)NC[C@H]2COc3ccccc32)s1 | -11 | 1.27
Cc1ccccc1N1CCN(c2nccn3c(=O)n(CC(=O)NC4CCCCC4)nc23)CC1 | -17 | 1.68
CCN(C)C(=O)c1ccc(-c2cc(O)cc(CC[C@H]3CCCCN3)c2)nc1 | -2 | 0.34
COC1CCC2OCCN(C(=O)N3CCOCC3)C2C1 (stereo not drawn) | 19 | -2.43
CCOc1ccc(CN(CC)C(=O)c2ccc3c(=O)n4c(nc3c2)CCCCC4)cc1OC | -16 | 1.48
Cc1cccnc1N(C)C(=O)[C@@H](c1ccccc1)N1CCCCC1=O | -14 | 2.02
CC(C)(C)OC(=O)N[C@@H]1CCCC[C@H]1NC(=O)NC1CCCCC1 | -4 | 0.48
COCCN(Cc1ccc(OC)c(OC)c1)C[C@H](Oc1ccccc1)C(=O)N1CCOCC1 | -4 | 0.39
COc1ccc(S(=O)(=O)N2CCCCC[C@H]2c2ccccc2Cl)cc1OC | -7 | 0.95
CC(=O)c1nc(CCN(C)C(C)=O)sc1C | -10 | 1.24
Cc1oc(-c2ccn[nH]2)cc1S(=O)(=O)Nc1ccc(OC(F)(F)F)cc1 | 13 | -1.33
CCCS(=O)(=O)N1CC[C@H]2CN(Cc3ccccc3)C[C@@]2(CO)C1 | -10 | 1.4
Cc1c(-c2n[nH]c3c2CN(C(=O)c2csnn2)CC3)cccc1C(F)(F)F | -12 | 1.03
CCc1ncc2c(n1)CN(C(=O)c1ccc3c(=O)n(C)cnc3c1)C2 | -4 | 0.83
O=C(Nc1ccc(S(=O)(=O)NC2CCOCC2)cc1)N1CC(CC2CC2)C1 | -6 | 0.9
CC(C)Cn1c(Cn2cccn2)nc2cc(NC(=O)c3ccc(F)cc3)ccc21 | -1 | 0.06
Clc1ccc2c(c1)C1OCCCC1C(c1ccccc1)N2 (stereo not drawn) | -8 | 0.88
Cc1c(CCC(=O)N2CC(CC(F)F)C2)cnn1C | 0 | 0
CC1=C(C(=O)NCc2cn(C)nc2C)CCC(C)(C)C1 | -17 | 2.05
c1ccc(N2CCc3nc(NCc4cccnc4)ncc32)cc1 | -14 | 2.54
CC/C=C(/CN1CCC(CNC(=O)[C@H]2CCCN(C)C2)CC1)c1ccccc1 | 1 | -0.1

SMILES | % Inhibition [%] | Z score
O=C(Cc1ncc(C(F)(F)F)cc1Cl)c1ccc(Cl)c(Cl)c1 | 39 | -5.03
Cc1cc(OC2CCCC2)n2nccc2n1 | -11 | 1.46
Cc1noc(C2CCN(C(=O)c3cc(C)n(C)c3C)CC2)n1 | 0 | 0.03
NC(=O)N1CCC[C@H](C(=O)N2CC(OCc3ccccc3)C2)C1 | -5 | 0.89
CC(C)CNS(=O)(=O)CCCOc1ccc(F)cc1 | 0 | 0.06
COc1ccc(CC(=O)n2nc(-c3ccc(F)cc3)nc2N)cc1 | -12 | 1.89
CNS(=O)(=O)CCn1ccnc1-c1ccccc1Cn1cccn1 | 0 | -0.05
Cc1ccc(N2CCCC2)c(C(=O)N2CC(C)NC(C)C2)c1 (stereo not drawn) | -5 | 0.83
CCCc1cc(-c2cccc(C(=O)N3CCN4CCC[C@H]4C3)c2)nc(C)n1 | -5 | 0.87
CCc1ccc(C(=O)N2C[C@@H]3CC[C@H]2CN(Cc2cscn2)C3)s1 | 1 | -0.1
Cc1nnc(C(C)N2CCC3(CC2)CC3C(=O)N2CCCCC2)o1 (stereo not drawn) | 3 | -0.39
COCCNc1ncccc1-c1noc([C@@H]2CCCN2Cc2ccncc2)n1 | 35 | -3.97
CC(C)[C@@H]1N(C(=O)NCc2ccccc2S(N)(=O)=O)CC12CC=CC2 | -12 | 1.82
Cc1nn(C)cc1[C@@H]1CCCN1C(=O)c1cnn(C2CCC2)c1 | 6 | -0.76
CC(C)c1ccccc1OC[C@@H](O)CN | -8 | 1.36
CCN(CCc1ccncc1)S(=O)(=O)c1ccc(N2C(=O)CCS2(=O)=O)cc1C | 32 | -0.69
CN1C(C(=O)Nc2ccc(C#N)cc2)CC(c2ccco2)NS1(=O)=O (stereo not drawn) | -22 | 1.92
CC(COC1CCOC1)NCc1cc(F)ccc1Br (stereo not drawn) | -9 | 1.06
COCC1(C(=O)N[C@H]2CN(C)S(=O)(=O)c3ccsc32)CCC1 | -6 | 0.7
COC(=O)CCc1csc(-c2cnc3ccccn23)n1 | -11 | 1.58
COc1ccc(C(=O)N2CCN(c3ccc(NC(=O)c4cccs4)cn3)CC2)cc1 | -28 | 3.97
O=C1CC[C@@H]2CN(c3ccncc3)CC[C@@H]2N1CCc1ccccn1 | 14 | -2.29
Cc1n[nH]c2cc(NC(=O)Cc3cccc(O)c3)ccc12 | 5 | -0.56
O=C(Cc1ccsc1)N1CC[C@H](OCc2ccccc2)C1 | -12 | 2.08
CCCCc1nc(CN2CCC[C@](C)(C#N)C2)c[nH]1 | -14 | 1.81
Cc1ccccc1-c1noc(-c2ccc(N3CCN(C)C(=O)[C@@H]3C)nc2)n1 | -20 | 2.4
CC(C)N1CCN(C(=O)C2C3CCCCC32)CC1=O (stereo not drawn) | -10 | 0.83
